# Laboratory results taken from article PMC4336329 (PLoS ONE, 2015).
# The whole screen tested about 310,000 compounds, of which about 14,000 (4.5%) showed an effect of 50% or more. Effects have a minus sign here. The list shows a part of the results.
# Biological target: human ether-à-go-go-related gene (hERG) potassium channel (human, UniProt Q12809)
# Test: primary screen, population patch clamp on CHO cells stably expressing hERG
# 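Also: peak tail current of the secondary pulse compared with the same well before compound.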
# human ether-à-go-go-related gene (hERG) potassium channel, sequence (Q12809 whole entry, looked up): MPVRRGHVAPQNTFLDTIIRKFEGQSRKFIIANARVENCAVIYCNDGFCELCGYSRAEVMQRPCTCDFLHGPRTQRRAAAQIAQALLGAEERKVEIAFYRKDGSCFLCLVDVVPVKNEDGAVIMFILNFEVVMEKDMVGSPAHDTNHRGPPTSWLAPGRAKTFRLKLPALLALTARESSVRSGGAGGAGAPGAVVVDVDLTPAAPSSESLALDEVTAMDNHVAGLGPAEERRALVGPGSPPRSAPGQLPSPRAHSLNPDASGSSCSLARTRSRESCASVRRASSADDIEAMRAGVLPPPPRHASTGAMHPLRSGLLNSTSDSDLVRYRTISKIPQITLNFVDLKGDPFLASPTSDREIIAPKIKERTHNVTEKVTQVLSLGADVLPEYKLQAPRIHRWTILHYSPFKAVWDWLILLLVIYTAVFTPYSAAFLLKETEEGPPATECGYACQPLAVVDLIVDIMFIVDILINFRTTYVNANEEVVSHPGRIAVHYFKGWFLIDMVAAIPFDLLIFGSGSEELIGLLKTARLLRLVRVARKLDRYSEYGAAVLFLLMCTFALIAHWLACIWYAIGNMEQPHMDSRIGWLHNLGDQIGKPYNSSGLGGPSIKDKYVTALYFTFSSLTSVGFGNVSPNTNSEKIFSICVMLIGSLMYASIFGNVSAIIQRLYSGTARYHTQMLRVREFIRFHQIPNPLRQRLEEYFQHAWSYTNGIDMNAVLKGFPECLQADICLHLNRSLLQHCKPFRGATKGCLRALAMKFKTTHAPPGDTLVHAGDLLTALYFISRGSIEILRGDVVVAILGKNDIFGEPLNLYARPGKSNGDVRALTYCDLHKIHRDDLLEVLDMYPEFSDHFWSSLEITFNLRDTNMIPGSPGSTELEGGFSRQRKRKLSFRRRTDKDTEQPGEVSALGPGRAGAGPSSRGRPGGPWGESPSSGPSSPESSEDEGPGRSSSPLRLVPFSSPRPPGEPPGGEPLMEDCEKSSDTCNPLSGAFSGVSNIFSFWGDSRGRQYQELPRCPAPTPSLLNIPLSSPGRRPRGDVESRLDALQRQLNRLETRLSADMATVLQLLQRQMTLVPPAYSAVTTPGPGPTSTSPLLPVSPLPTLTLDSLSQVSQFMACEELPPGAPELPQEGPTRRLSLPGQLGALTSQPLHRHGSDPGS
row,SMILES,"hERG current change (%, negative = inhibition) at 10uM [%]"
1,CCOC(=O)c1nn(-c2ccc(C)cc2)c(=O)c2c(N)scc12,-3.9
2,COc1ccc(Br)cc1C(=O)Nc1cc(C)cc(C)c1,5.21
3,CCn1c2ccccc2c(=O)c2ccccc21,-0.474
4,C#CCNC(=O)C1=C[C@@H](c2coc3ccccc3c2=O)C[C@@H](OCc2ccc(CO)cc2)O1,-33
5,COc1ccccc1CCNC(=O)c1ccoc1C,3.49
6,CCOC(=O)c1c(CN2CCN(CCO)CC2)n(C)c2cc(Br)c(OC)cc12,-11.3
7,CCN(CC)S(=O)(=O)c1ccc(F)c(C(=O)OC2CC(C)OC2=O)c1 (stereo not drawn),-2.4
8,COc1ccc(CCNC(=O)Cn2c(-c3nonc3N)nc3ccccc32)cc1OC,-4.07
9,Cc1ncc(CCl)c2c1OC(C)(C)OC2.Cl,10.2
10,CCc1nnc(NC(=O)C(C)N2C(=O)C3C4C=CC(C4)C3C2=O)s1 (stereo not drawn),-0.654
11,CCC(C)c1ccc(NC(=O)CN(C)CC(=O)Nc2cccc(OC)c2)cc1 (stereo not drawn),-3.55
12,CNC(=S)N/N=C(\C)c1cccc([N+](=O)[O-])c1,-10
13,COc1ccc(OC)c(S(=O)(=O)N2CCCCC2C(=O)O)c1 (stereo not drawn),-2.13
14,N#CC(c1ccccc1)N(CCCCl)C(=O)c1ccc(Br)cc1 (stereo not drawn),-9.57
15,CNC(=O)N(c1ccccc1)c1ccccc1,3.75
16,Cc1ccc(N(CC(=O)NC2CCCCC2)C(=O)CCCC(=O)Nc2ccccn2)cc1,9.72
17,COc1ccccc1OCc1nc(-c2ccc([N+](=O)[O-])cc2)no1,0.0301
18,O=C1CC(Sc2cccs2)C(=O)N1c1ccccc1 (stereo not drawn),14.5
19,O=C(Nc1sc2c(c1C(=O)O)CCC2)c1ccc(F)cc1,29.8
20,Cc1ccccc1S(=O)(=O)c1c(C)cc(C)n(C(C)C)c1=O,-14.9
21,COC(=O)[C@@]1(Cc2ccc(F)cc2)[C@H]2c3cc(C(=O)N(C)C)n(CCc4ccccn4)c3C[C@H]2CN1C(=O)c1ccccc1,-64.8
22,CCOc1ccc(C2NC(=O)c3ccccc3O2)cc1OC (stereo not drawn),17.1
23,CCN(CC)CCCNC(=O)c1c(O)c2cc(F)cc3c2n(c1=O)C(C)CC3.Cl (stereo not drawn),-50.5

row,SMILES,"hERG current change (%, negative = inhibition) at 10uM [%]"
1,Cc1ccc2occ(C3N[C@H](C(=O)O)CS3)c(=O)c2c1 (stereo partly drawn),4.25
2,COc1cc2c(cc1NC(=O)CSc1ccccn1)oc1ccccc12,17
3,COc1ccc(CN2CCN(Cc3cc4ccccc4o3)CC2CCO)c(F)c1 (stereo not drawn),-60.9
4,CCCCCc1c(C)[nH]c2nc3ccccc3n2c1=O,12.2
5,CCCCn1c(N)c(N(CCOC)C(=O)C2CCN(C(=O)c3ccccc3C)CC2)c(=O)[nH]c1=O,-4.9
6,O=C(c1cccc(F)c1)N1CCCC(C(=O)N2CCCCC2)C1 (stereo not drawn),16.6
7,Cc1cc2c(c(/C=C/C(=O)c3ccccc3)c1)OC1(C=C2)Oc2ccccc2C(=O)N1C (stereo not drawn),12.7
8,COc1ccccc1-n1cccc1C=O,26.9
9,O=S(=O)(Nc1ccc(Cl)cn1)c1cccc(S(=O)(=O)c2ccccc2)c1,-6.89
10,Fc1ccccc1-n1c(-c2ccc3ccccc3n2)n[nH]c1=S,7.45
11,CCN(C(=O)c1c(-c2ccccc2)noc1C)c1ccccc1,1.1
12,CCOC(=O)C1CCN(C(=O)c2cc3c(s2)-c2ccccc2OC3)CC1,-38.9
13,O=C(Nc1ccc2c(c1)Cc1ccccc1-2)c1cc2ccccc2o1,7.73
14,Cn1c(=S)n(/N=C/c2cccs2)c2ccccc21,-7.88
15,Cc1ccc(NC(=O)CN2C(=O)c3ccccc3S2(=O)=O)cc1C,14.5
16,Nn1c(SCC(=O)N2CCCc3ccccc32)nnc1-c1ccccc1,2.21
17,CSc1nnc2n(C)c3c(c(=O)n12)C1(CCCC1)Cc1ccccc1-3,2.33
18,COc1ccccc1OCC(=O)NNC(=O)c1ccc2c(=O)n3c(nc2c1)CCC3,12.9
19,O=C(O)C(F)(F)F.Oc1cc(-c2cccnc2)cc2cccnc12,13.3
20,N#Cc1cnn(Cc2ccc(Cl)cc2)c1N,-13
21,Cc1c(C(=O)C(C)C)n(C)c2ccccc12,7.37
22,CC(Oc1ccc(Cl)cc1Cl)C(=O)NCCCn1ccnc1 (stereo not drawn),-28
23,O=C(CCC(=O)OCC(F)(F)C(F)F)NCc1ccccc1,5.56

row,SMILES,"hERG current change (%, negative = inhibition) at 10uM [%]"
1,Nc1ncc(Br)cc1S(=O)(=O)NCCC(=O)N1CCN(c2ccccc2)CC1,-8.45
2,CCOC(=O)CS(=O)(=O)CC(=O)Nc1ccc([N+](=O)[O-])cc1OC,-5.39
3,COc1cccc(-c2csc(N3CCN(C(=O)NC45CC6CC(CC(C6)C4)C5)CC3)n2)c1,11.1
4,CC1CCCC(N2CCN(C(=O)c3ccc([N+](=O)[O-])cc3)CC2)C1.O=C(O)C(=O)O (stereo not drawn),-71.9
5,CCOC(=O)N1CCC(C(=O)NNC(=O)c2ccc(Cl)cc2Cl)CC1,4.03
6,C=CCc1ccc(OCCOCCOc2ccccc2[N+](=O)[O-])c(OC)c1,-20.2
7,CC(C)(C)CC(=O)Nc1nnc(CCc2ccccc2)s1,10.1
8,CC(C)CC1C(C#N)=C(N)Oc2n[nH]c(-c3ccccc3)c21 (stereo not drawn),7.28
9,O=C(COc1ccc2c3c(c(=O)oc2c1)CCC3)NCCCN1CCCC1=O,9.37
10,COc1ccc(NC(=O)C(=O)NCC(c2ccco2)N2CCc3ccccc3C2)cc1OC (stereo not drawn),-69.4
11,CCn1cc(C(=O)NCC2CCCO2)c(=O)c2cc(S(=O)(=O)N(C)C)ccc21 (stereo not drawn),3.99
12,Cc1cc(NC(=O)CSc2nccn2-c2cccc(C)c2C)no1,0.368
13,O=C(O)/C=C/c1ccc2c(-c3ccccc3)onc2c1,8.05
14,Nc1ccc([As](=O)(O)O)cc1,-0.804
15,CCOC(=O)N1CCN(C(=O)CN2C(=O)COc3ccc(S(=O)(=O)N4CCOCC4)cc32)CC1,15.1
16,COC(=O)Cc1nnc(NC(=O)C(C)C)s1,8.98
17,COC(=O)C1=C(COc2ccc(C=O)cc2OC)NC(=O)NC1c1cc(C)ccc1C (stereo not drawn),6.02
18,NC(=O)c1ccccc1NC(=O)CSC1=NCCS1,16.1
19,COC(Cc1n[nH]c(=S)n1-c1ccc(Cl)cc1)OC,8.38
20,CC(Nc1nc(-c2cccnc2)nc2ccccc12)c1ccc(F)cc1 (stereo not drawn),-27.8
21,CCOc1ccc(NC(=O)C(c2ccccn2)N(C(=O)CCl)c2ccc(OCC)cc2)cc1 (stereo not drawn),-17.3
22,Cc1cc2c(cc1S(=O)(=O)N(C)Cc1ccccc1)n(C)c(=O)c(=O)n2C,-42.7
23,O=C(CN1CCCCC1)N/N=C/c1ccc(Cl)cc1Cl,-39.1

row,SMILES,"hERG current change (%, negative = inhibition) at 10uM [%]"
1,Cc1cc(C)nc(N(C#N)CC(=O)Nc2ccccc2)n1,7.2
2,COc1ccccc1C(=O)NCC(C)(C)CN=C1NS(=O)(=O)c2ccccc21,-23.3
3,Cc1nc2sccn2c(=O)c1S(=O)(=O)N1CCN(c2ccc(F)cc2)CC1,-70.2
4,O=C(CC(C(=O)N1CCc2ccccc21)n1ccnc1)NCc1ccccc1 (stereo not drawn),-26.5
5,O=C(CSc1nnc(-c2ccco2)o1)c1ccccc1Cl,-4.07
6,CC(C)=CCCC1(C)C=Cc2c(ccc3c2[nH]c2cc(O)c(C)cc23)O1 (stereo not drawn),5.43
7,Cc1c(N2C(=O)/C(=C/c3ccccc3)SC2=S)c(=O)n(-c2ccccc2)n1C,-25.9
8,Cc1ccnc(NC(=S)NC(=O)c2cccs2)c1,9.29
9,CC(OCCN(C)C)C(=O)C12CC3CC(CC(C3)C1)C2.Cl (stereo not drawn),6.59
10,CCOC(=O)COc1cc(OCC(=O)OCC)c2c(=O)cc(-c3ccccc3)oc2c1,-62.6
11,O=C(CN(c1ccc(F)cc1)S(=O)(=O)c1ccccc1)N1CCOCC1,2.48
12,O=C(CSc1nnc(-c2cccs2)o1)Nc1cccc(S(=O)(=O)N2CCCCC2)c1,5.19
13,Cc1cc(-c2nnc(SCC(=O)Nc3ccc(Br)cc3F)n2N)n[nH]1,1.3
14,CC(=O)c1ccc(Oc2ncnc3sccc23)c(CN2CCOCC2)c1,9.09
15,CCC1(c2cccc(O)c2)CCCCN(C)C1.Cl (stereo not drawn),-18.3
16,COc1cccc(/C=N/NC(=O)CCCC(=O)NC2CCCCC2)c1,-10.8
17,C=CCNC(=O)Nc1ccc(F)cc1F,4.39
18,Cn1cc(/C=C/c2cc[n+](C)cc2)c2cc(F)ccc21.[I-],-12.8
19,CCOC(=O)c1c(C)[nH]c(C(=O)OCc2ccc(C)cc2)c1C,13
20,CC(C)[C@H](NC(N)=O)C(=O)NCCc1ccc(Cl)cc1,3.09
21,CC1=C(C(=O)OCc2ccc(C)cc2)C(c2ccc(O)c([N+](=O)[O-])c2)NC(=O)N1 (stereo not drawn),4.03
